The results in this text go back to PMC4336329 (PLoS ONE, 2015).

Screen size: about 310,000 compounds; about 14,000 (4.5%) showed an effect of 50% or more. Effects have a minus sign here. The list shows a part of the results.
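Further: peak tail current of the secondary pulse compared with the same well before compound.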

In the assay the target is human ether-à-go-go-related gene (hERG) potassium channel (human, UniProt Q12809). The assay is described as follows: primary screen, population patch clamp on CHO cells stably expressing hERG.
human ether-à-go-go-related gene (hERG) potassium channel, sequence (Q12809 whole entry, looked up): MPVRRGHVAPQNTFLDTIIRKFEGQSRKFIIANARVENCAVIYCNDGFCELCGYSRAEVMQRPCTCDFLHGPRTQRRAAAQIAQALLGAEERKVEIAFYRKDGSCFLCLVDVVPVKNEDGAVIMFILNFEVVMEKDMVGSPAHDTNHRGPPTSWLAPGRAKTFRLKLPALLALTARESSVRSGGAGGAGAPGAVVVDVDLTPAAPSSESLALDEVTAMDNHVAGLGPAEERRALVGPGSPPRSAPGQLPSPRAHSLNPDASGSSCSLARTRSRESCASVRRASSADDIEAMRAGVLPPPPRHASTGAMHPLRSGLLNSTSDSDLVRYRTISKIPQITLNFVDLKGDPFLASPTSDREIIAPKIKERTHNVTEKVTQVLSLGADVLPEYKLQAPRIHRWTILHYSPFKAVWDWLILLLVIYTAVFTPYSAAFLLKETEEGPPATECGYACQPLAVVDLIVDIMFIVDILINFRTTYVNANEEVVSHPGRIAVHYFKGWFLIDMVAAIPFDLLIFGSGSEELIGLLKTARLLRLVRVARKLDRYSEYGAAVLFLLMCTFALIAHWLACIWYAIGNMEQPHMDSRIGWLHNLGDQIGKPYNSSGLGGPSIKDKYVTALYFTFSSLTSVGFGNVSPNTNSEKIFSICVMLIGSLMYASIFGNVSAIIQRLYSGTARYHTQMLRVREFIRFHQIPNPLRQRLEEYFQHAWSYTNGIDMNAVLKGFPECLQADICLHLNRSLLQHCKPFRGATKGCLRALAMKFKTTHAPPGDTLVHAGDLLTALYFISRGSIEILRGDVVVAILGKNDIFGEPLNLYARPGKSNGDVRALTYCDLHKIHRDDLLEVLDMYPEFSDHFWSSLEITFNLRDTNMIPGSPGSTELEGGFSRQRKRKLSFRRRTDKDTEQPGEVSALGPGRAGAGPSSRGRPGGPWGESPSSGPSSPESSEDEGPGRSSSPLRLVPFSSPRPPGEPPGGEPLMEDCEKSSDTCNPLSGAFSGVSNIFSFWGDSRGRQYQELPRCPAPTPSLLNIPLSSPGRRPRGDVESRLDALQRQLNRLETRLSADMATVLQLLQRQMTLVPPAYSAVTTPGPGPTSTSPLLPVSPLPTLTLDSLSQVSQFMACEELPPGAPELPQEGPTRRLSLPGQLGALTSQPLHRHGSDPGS
Turning to `CCOC(=O)C1(Cc2ccccc2)C(=O)N(CCCN(C)C)c2ccccc21.Cl` (stereo not shown), the “hERG current change (%, negative = inhibition) at 10uM” value is 3.31%. The result for `COc1cc(OC)cc(C(=O)NC(=S)Nc2ccc(NC(=O)c3ccco3)cc2)c1` reads -24.6%.

`CCCCC(=O)C1CCN(Cc2ccccc2)CC1`: the “hERG current change (%, negative = inhibition) at 10uM” value is given as -34.5%. As to `O=C(CCc1nc(-c2ccccc2)no1)NCc1ccccc1CN1CCOCC1`, the “hERG current change (%, negative = inhibition) at 10uM” value was -10.5%.

Take `Cc1nc2ccc([N+](=O)[O-])cc2c(=O)n1Cc1ccc(Cl)cc1`: the “hERG current change (%, negative = inhibition) at 10uM” value was -4.6%. Next, `O=C(/C=C/c1ccco1)NC(=S)Nc1cccc([N+](=O)[O-])c1`: 9.53%. As to `CCc1ccc(C(=O)COC(=O)c2cnc(C)cn2)cc1`, the “hERG current change (%, negative = inhibition) at 10uM” value is listed as -3.49%. Next, `CC(C)COP(=O)(OCC(C)C)C(O)c1cccnc1` (stereo not shown): 1.7%; `COc1cccc(C(C)NC(=S)NCc2ccc(Cl)cc2)c1` (stereo not shown): 11.1%; `O=C1CCCC(O)=C1N=Nc1c(Cl)cc(Cl)cc1Cl`: 7.14%.

With `Cc1ccc(N(C(C)C(=O)NCc2ccncc2)S(C)(=O)=O)cc1C` (stereo not shown), the “hERG current change (%, negative = inhibition) at 10uM” value came to 11.7%.

Turning to `Cc1[nH]nc(N=CC2=C(O)CC(c3ccco3)CC2=O)c1-c1ccccc1` (stereo not shown), the “hERG current change (%, negative = inhibition) at 10uM” value worked out at 13.7%. The result for `Cc1ccc(NCCC#N)cc1C` reads 0.785%. The result for `CC1CCN(c2ccc(NC(=O)C3CCCN3S(=O)(=O)c3ccc(F)cc3)cc2)CC1` (stereo not shown) reads -14.2%; that for `CCOC(=O)Cn1c(=O)oc2cc(S(=O)(=O)NCC3CCCO3)ccc21` (stereo not shown), -5.92%; that for `CC(c1ccccc1)N1CC(C(=O)N2CCN(c3ccccc3)CC2)CC1=O` (stereo not shown), -27.2%. Next, `COc1ccc(NC(=O)CCc2nc3ccccc3[nH]2)cc1`: 8.56%.

Take `CC(C)C(c1nnnn1C1CCCC1)N1CCCCC1.Cl` (stereo not shown): the “hERG current change (%, negative = inhibition) at 10uM” value is recorded as 11.9%. Next, `CCC(=O)N1CCc2cc(Br)cc(S(=O)(=O)CC(=O)OC)c21`: 10.6%; `CN(C)c1ccc(C(=O)/C=C/c2ccco2)cc1`: 14.9%; `COc1ccc(-n2nc(C(=O)NCC(=O)N3CCOCC3)c3ccccc3c2=O)cc1OC`: -0.283%. Next, `COc1ccc(-c2csc(Nc3ncccc3C)n2)cc1`: -7.45%; `Cc1ccc2c(CNCc3ccco3)cc(=O)oc2c1`: -16.5%.

In the case of `Cc1c(Cl)cn2c(=O)cc(CN(C)Cc3nc4ccccc4c(=O)[nH]3)nc2c1Cl`, the “hERG current change (%, negative = inhibition) at 10uM” value is reported as -44.2%.

Take `Cc1ccc(NC(=O)c2nc[nH]c2C(=O)N2CCN(C(=O)OC(C)(C)C)CC2)cc1`: the “hERG current change (%, negative = inhibition) at 10uM” value is given as -22.5%.
